Test results from patent publication US5639887A, “MDR reversal agents” (priority 1995, dated 1997).
Where a name gives a salt, the structure may show the parent alone. The name of at least one read-out is uncertain.

Tested on: bisantrene-resistant human ovarian carcinoma cells S1-B1-20 (OVCAR-3 subclone)
Assay: Screening assay for reversal agents: Difference Score with/without 20 μM bisantrene
Type: cell-based
Details: alone vs with 20 μM bisantrene, 3 days, difference in % cell survival; for Difference Score at 1 microM: test agent 1 microM; for Difference Score at 10 microM: test agent 10 microM; for Difference Score at 20 microM: test agent 20 microM
Description: Such cells are sorted by a fluorescent activated cell sorter (FACS; Becton Dickinson Model 440).
Cells, prepared by trypsinization, are plated at 20,000 cells/well in media with and without bisantrene. Then, test agents at varying concentrations are added to the cells. […] Completed plates are incubated for 3 days at 37° C. in a moisturized 7% CO2 atmosphere. […] Dye content/well is read at 540 nm in a microtiter reader. Values are electronically processed, % cell survival compared to untreated cells is computed, and the results are expressed as the difference between these values. Experiments are run in the presence of the test agent alone and the test agent in combination with 20 μM bisantrene. The Difference Score between those two experiments is reported below for 3 different concentrations of test agent.

SMILES | Difference Score at 1 microM | Difference Score at 10 microM | Difference Score at 20 microM | Difference Score at 1 microM (dihydrochloride) | Difference Score at 10 microM (dihydrochloride) | Difference Score at 20 microM (dihydrochloride)
COc1ccc(C(C#N)(CCCN2CCc3cc(OC)c(OC)cc3C2)Sc2ccc(C)cc2)cc1OC (stereo not drawn) [Example 4, α-{3,4-Dimethoxyphenyl)-3,4-dihydro-6,7-dimethoxy-α-[(4-methylphenyl)thio]-2(1H)-isoquinolinepentanenitrile monohydrochloride] | 72 | 85 | 59 | – | – | –
COc1ccc(C(C#N)(CCCN2CCc3cc(O)c(O)cc3C2C)Sc2ccc(C)cc2)cc1OC (stereo not drawn) [Example 6, α(3,4-Dimethoxyphenyl)-3,4-dihydro-6,7-dihydroxy-1-methyl-α-(4-methylphenyl)thio]-2(1H)-isoquinoline pentanenitrile monohydrochloride] | – | 55 | – | – | – | –
COc1ccc(C(C#N)(CCN2CCc3cc(OC)c(OC)cc3C2)Sc2ccc(C)cc2)cc1OC (stereo not drawn) [Example 9, α-(3,4-Dimethoxyphenyl)-3,4-dihydro-6,7-dimethoxy-α-[(4-methylphenyl)thio]-2(1H]-isoquinolinebutanenitrile] | 8 | 85 | 71 | – | – | –
COc1ccc(C(C#N)(CC(C)CN2CCc3cc(OC)c(OC)cc3C2)Sc2ccc(C)cc2)cc1OC (stereo not drawn) [Example 11, α-(3.4-Dimethoxyphenyl)-3,4-dihydro-6,7-dimethoxy-gamma-methyl-α-[(4-methylphenyl)thio]-2(1H)-isoquino linepentanenitrile] | 72 | 87 | 89 | – | – | –
COC(=O)C(CCCN1CCc2cc(OC)c(OC)cc2C1)(Sc1ccc(C)cc1)c1ccc(OC)c(OC)c1 (stereo not drawn) [Example 12, α-(3,4-Dimethoxyphenyl)-3,4-dihydro-6,7-dimethoxy-α-[(4-methylphenyl)thio]-2(1H)-isoquinolinepentanoic acid methyl ester] | 45 | 84 | 72 | – | – | –
COc1ccc(C(C#N)(CCCCCN2CCc3ccccc3C2)Sc2ccc(C)cc2)cc1OC (stereo not drawn) [Example 16, α-(3,4-Dimethoxyphenyl)-3,4-dihydro-α-[(4-methylphenyl)thio]-2(1H)-isoquinoline-2-heptanenitrile] | 28 | 73 | 14 | – | – | –
COc1ccc(C(C#N)(CCCCCCCCN2CCc3cc(OC)c(OC)cc3C2)Sc2ccc(C)cc2)cc1OC (stereo not drawn) [Example 20, α-(3,4-Dimethoxyphenyl]-3,4-dihydro-6,7-dimethoxy-α-[(4-methylphenyl)thio]-2(1H)-isoquinolinedecanenitrile] | 81 | 51 | 15 | – | – | –
COc1ccc(C(C#N)(CCCCCN2CCc3cc4c(cc3C2)OCO4)Sc2ccc(C)cc2)cc1OC (stereo not shown) [Example 21] | 23 | 72 | 56 | – | – | –
COc1ccc2c(c1)CCN(CCCCCC(C#N)(Sc1ccc(C)cc1)c1ccc(OC)c(OC)c1)C2 (stereo not shown) [Example 22] | 33 | 55 | 32 | – | – | –
COc1ccc(C(C#N)(CCCCCN2Cc3cc(OC)c(OC)cc3C2)Sc2ccc(C)cc2)cc1OC.Cl (stereo not drawn) [Example 27, α-(3,4-Dimethoxyphenyl)-1,3-dihydro-5,6-dimethoxy-α-[(4-methylphenyl)thio]-2H-isoindole-2-heptanenitrile hydrochloride] | 87 | 54 | 13 | – | – | –
COc1cc2c(cc1O)CN(CCCCCC(C#N)(Sc1ccc(C)cc1)c1ccc(OC)c(OC)c1)CC2 (stereo not drawn) [Example 30, α-(3,4-Dimethoxvphenyl)-3.4-dihydro-7-hydroxy-6-methoxy-α-[(4-methylphenyl)thio]-2(1H)-isoquinolineheptanenitrile] | 6 | 90 | 62 | – | – | –
COc1ccc(C(C#N)(CCCCCN2CCc3cc(OC)c(OCCN(C)C)cc3C2)Sc2ccc(C)cc2)cc1OC (stereo not shown) [Example 31] | 0 | 31 | 5 | – | – | –
COc1ccc(C(C#N)(CCCCCN2CCc3cc(OC)c(OCCn4ccnc4)cc3C2)Sc2ccc(C)cc2)cc1OC.Cl (stereo not drawn) [Example 34, α-(3,4-Dimethoxyphenyl)-3,4-dihydro-7-[2-(1H-imidazol-1-yl)ethoxy]-6-methoxy-α-[(4-methylphenyl)thio]-2(1H)-isoquinolineheptanenitrile hydrochloride] | 22 | 77 | 34 | – | – | –
COc1ccc(C(C#N)(CCCCN2CCc3cc(OC)c(OC)cc3C2)Sc2ccc(C)cc2)cc1OC (stereo not drawn) [Example 35, α-(3,4-Dimethoxyphenyl)-3,4-dihydro-6,7-dimethoxy-α-[(4-methylphenyl)thio]-2(1H)-isoqutnolinehexanenitrile monohydrochloride] | 63 | 90 | 67 | – | – | –
COc1ccc(C(CCCN2CCc3cc(OC)c(OC)cc3C2)Sc2ccc(C)cc2)cc1OC (stereo not shown) [Example 39, 2-[4-[3,4-Dimethoxyphenyl)-4-[(4-methylphenyl)thio]butyl]-1,2,3,4-tetrahydro-6,7-dimethoxyisoquinoline] | 49 | 82 | 69 | – | – | –
COc1ccc(C(CCCCCN2CCc3cc(OC)c(OC)cc3C2)Sc2ccc(C)cc2)cc1OC (stereo not shown) [Example 41, 2-[6-(3,4-Dimethoxyphenvl]-6-[(4-methylphenyl)thio]-hexyl]-1,2,3,4-tetrahydro-6,7-dimethoxyisoquinoline] | 82 | 71 | 39 | – | – | –
COc1ccc(C(C#N)(Cc2cccc(CN3CCc4cc(OC)c(OC)cc4C3)c2)Sc2ccc(C)cc2)cc1OC (stereo not drawn) [Example 45, 3-(3,4-Dihydro-6,7-dimethoxy-2(1H)-isoquinolinYl)-α-(3,4-dimethoxyphenyl]-α-[(4-methylphenyl)thio]benzene-propanenitrile] | 23 | 67 | 51 | – | – | –
COc1ccc(C(CCCCCN2CCc3cc4c(cc3C2)OCO4)Sc2ccc(C)cc2)cc1OC (stereo not shown) [Example 47] | 0 | 20 | 39 | – | – | –
COc1ccc(C(CCCCCCN2CCc3cc(OC)c(OC)cc3C2)Sc2ccc(C)cc2)cc1OC (stereo not shown) [Example 50, 2-[7-(3,4-Dimethoxyphenyl)-7-[(4-methylphenyl)thio]-heptyl]-1,2,3,4-tetrahydro-6,7-dimethoxyisoquinoline] | 55 | 64 | 23 | – | – | –
CCOC(=O)C1(C(=O)OCC)Oc2cc3c(cc2O1)CN(CCCCCCC(Sc1ccc(C)cc1)c1ccc(OC)c(OC)c1)CC3 (stereo not shown) [Example 53, Diethyl-6-[7-(3,4-dimethoxyphenyl)-7-[(4-methylphenyl)thio]heptyl]-5,6,7,8-tetrahydro-1,3-dioxolo[4,5-g]-isoquinoline dicarboxylate] | 0 | 15 | 39 | – | – | –
COc1ccc(C(CCCCCCN2CCc3cc4c(cc3C2)OC(CO)(CO)O4)Sc2ccc(C)cc2)cc1OC (stereo not shown) [Example 54, 6-[7-{3,4-Dimethoxyphenyl)-7-[(4-methylphenyl)thio]-heptyl]-5,6,7,8-tetrahydro-1,3-dioxolo[4,5-g]isoquinoline-2,2-dimethanonol] | 6 | 50 | 30 | – | – | –
COc1ccc(C(C#N)(CCCCCN2CCc3cc(OC)c(OC)cc3C2)SC2CCCCC2)cc1OC (stereo not drawn) [Example 62, α-(Cyclohexylthio)-α-(3,4-dimethoxyphenyl)-3,4-dihydro6,7-dimethoxy-2(1H)-isoquinolineheptane nitrile] | 69 | 76 | 19 | – | – | –
COc1cc2c(cc1OC)CN(CCCCCCC(Sc1ccc(C)cc1)c1ccc(OC)c(OCCn3ccnc3)c1)CC2 (stereo not shown) [Example 75, 1,2,3,4-Tetrahydro-2-[7-[3-[2-(1H-imidazol-1-yl)-ethoxy]-4-methoxyphenyl]-7-[(4-methylphenvl]thio]-heptyl-6,7-dimethoxyisoquinolinedihydrochloride] | – | – | – | 91 | 20 | 1
COc1cc2c(cc1OC)CN(CCCCCC(Sc1ccc(C)cc1)c1ccc3c(c1)OCO3)CC2 (stereo not shown) [Example 89] | 62 | 71 | 57 | – | – | –
COc1cc2c(cc1OC)CN(CCCCCC(Sc1ccc(C)cc1)c1ccc(OC(F)(F)F)cc1)CC2 (stereo not shown) [Example 92, 1,2,3,4-Tetrahydro-6,7-dimethoxy-2-[6-[(4-methyl-phenyl]thio]-6-[trifluoromethoxy)phenyl]hexylisoquinoline] | 37 | 68 | 43 | – | – | –
